Assay results: the supplement of paper PMC3334620
In all, about 33,000 sequences were measured (“E-score (-0.5 to 0.5)”: median about -0.054, highest 2% from about 0.35 on). Some of the results follow.

The sequences below were run against T1, Stb5 (UniProt P38699) (assay: PBM E-score (8-mer binding enrichment) (E-score (-0.5 to 0.5)); higher = stronger / more preferred TF binding; most listed sequences are background and not binding sites). Conditions: protein concentration: 200 nM; construct: GST-full length.
T1 sequence: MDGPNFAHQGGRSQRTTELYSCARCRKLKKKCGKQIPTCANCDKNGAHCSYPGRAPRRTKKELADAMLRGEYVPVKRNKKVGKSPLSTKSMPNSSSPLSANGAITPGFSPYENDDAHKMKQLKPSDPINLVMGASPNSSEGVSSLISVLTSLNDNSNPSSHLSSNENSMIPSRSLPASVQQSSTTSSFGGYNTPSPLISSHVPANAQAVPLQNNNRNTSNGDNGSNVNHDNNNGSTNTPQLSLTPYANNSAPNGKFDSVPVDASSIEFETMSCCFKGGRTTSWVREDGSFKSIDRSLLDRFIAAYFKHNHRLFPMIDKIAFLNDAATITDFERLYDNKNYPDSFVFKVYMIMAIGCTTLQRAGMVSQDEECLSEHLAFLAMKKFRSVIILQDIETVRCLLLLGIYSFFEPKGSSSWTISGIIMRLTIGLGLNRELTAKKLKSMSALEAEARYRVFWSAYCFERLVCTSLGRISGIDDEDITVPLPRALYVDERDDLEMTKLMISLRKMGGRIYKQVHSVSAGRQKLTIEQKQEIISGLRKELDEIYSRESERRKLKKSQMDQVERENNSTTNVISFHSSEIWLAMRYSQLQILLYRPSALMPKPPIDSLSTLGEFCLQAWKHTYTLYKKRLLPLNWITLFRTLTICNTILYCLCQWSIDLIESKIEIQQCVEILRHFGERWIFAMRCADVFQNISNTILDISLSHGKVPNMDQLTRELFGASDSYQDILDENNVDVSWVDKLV
Method: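 Universal 'all 10-mer' protein binding microarrays (Agilent AMADID 015681) probed with GST-tagged S. cerevisiae TFs (full-length or DBD) made by in vitro transcription/translation (PURExpress), about 100-200 nM. Bound TF was detected with fluorescent anti-GST. Each ungapped 8-mer (which stands for itself and its reverse complement) is scored by the PBM enrichment score (E-score), a modified Wilcoxon-Mann-Whitney statistic from -0.5 to +0.5, computed with the Universal PBM Analysis Suite. Scale: above 0.35 generally sequence-specific binding.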

Sequence | PBM E-score
CAGTTGCG | -0.0668
ACAGTTTG | -0.267
CGGTCACC | 0.0906
ATTTTGAG | 0.05
AGCGGGCA | 0.248
CAAATGGA | 0.00904
AGCCTATC | -0.0823
CAAGCCAG | -0.302
ACTGTACG | -0.0641
AATCCACC | -0.0679
ACACTGGT | -0.141
ATAACGTG | -0.0491
CCGTACAA | 0.129
CGAGCCAG | 0.0317
CCTGATGA | -0.277
GACAACGC | -0.0522
AAGAATCG | 0.214
AGCGTCAG | -0.218
ACTTCGTA | -0.229
ACTTACCC | 0.0118
AAGTGAGC | -0.32
TAAGCCGA | 0.074

Sequence | PBM E-score
CCCACACA | -0.187
ACGACCTG | -0.184
GGGGATGA | -0.0902
GTAAGCTA | -0.0178
ACTTCTGA | -0.166
ATAAACCC | 0.373
CAAACAAC | 0.0293
ACTACCTC | -0.0145
ACGTGCAG | -0.189
CAATTGAA | -0.12
GTTATGAA | 0.113
CCGTTGCA | 0.171
CGCTGAAG | -0.01
ACCTACCG | 0.0519
GAGTCATC | -0.211
AACTCCTT | 0.119
CTGGATGC | -0.0435
ATCAATTG | -0.152
GCCACCCA | -0.113
ACCTCGCG | 0.12
CTCTTTGA | -0.164
ATGAAGGA | -0.0121

Sequence | PBM E-score
GTAAGTAC | 0.0626
CTTATGCA | -0.0947
ACCAAATC | -0.0624
AGATTACC | 0.135
CTTCGGCA | 0.209
AGGTTCTC | -0.139
GCCTGCTA | -0.107
AGTGAGGC | -0.1
CCACCCAC | -0.0184
AGCACGAA | -0.0658
TCAAACGA | -0.149
GACATATA | 0.183
TACTGCGA | -0.0885
CACGGACA | 0.211
AGGCCCCT | -0.1
ATTCATTC | -0.0144
CATTTTAC | 0.0886
AGACATCC | -0.0773
AGCCATAA | -0.137
GAGACTTA | -0.164
CTCCATGA | -0.0472
AAGCGTAA | -0.0172

Sequence | PBM E-score
TAGTAACA | -0.138
AAATTGTA | -0.134
GCAGCTTA | -0.132
CCCCAAGA | -0.155
ACGAGTTA | -0.106
ATTGTATG | -0.145
CAGCCGTC | -0.00175
AATGCCTC | -0.118
CGCTATTC | 0.196
GTCTTGTA | -0.145
ATCTGGCC | 0.0703
ATACCGCC | 0.434
TAATTGCA | -0.127
GTCTAGAC | -0.207
CCTCCCAC | -0.0348
TAATGGTA | 0.0811
CTCATTCC | -0.0501
ACATACCA | 0.0536
GGTCGGGA | 0.325
CCGGATCG | 0.22
